# Experimental data reported in the supplement of paper PMC4967469.
# By IC50 is meant the dose at which the fit gives 50% viability; fits outside the tested doses are given as limits. AUC is the area under the same curve over the 256-fold range up to the top dose, as a fraction: 1 means no effect, lower means more sensitive. A top dose marked as inferred was calculated from the reported fits.
# Experiments:
# Assay in all cases: Viability of human cancer cell lines after 72 h of drug (GDSC screen)
# [1] = compound: CC(C)(C)OC(=O)Nc1ccc(-c2cc(C(=O)NCCCCCCC(=O)NO)no2)cc1 [CAY10603]; conditions: top dose 20 µM; top dose inferred
# Description: (§1)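 Human cancer cell lines in 384-well plates, medium with 10% serum, drug for 72 h over a 256-fold dose range (nine 2-fold or five 4-fold steps up to the top dose). Adherent lines were fixed and stained with the nucleic acid dye Syto60, suspension lines read with resazurin; signal relative to control wells, capped at 0 and 100%. One two-parameter sigmoid per drug and line, fitted in a mixed model over all curves with the slope shared within a line.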
# [2] = compound: CCOc1cc(N2CCC(O)CC2)ccc1Nc1ncc2c(n1)N(C)c1ccccc1C(=O)N2C [XMD8-92]; conditions: top dose 10 µM; top dose inferred
# Description: as §1
# [3] = compound: CCc1cc2c(cc1N1CCC(N3CCOCC3)CC1)C(C)(C)c1[nH]c3cc(C#N)ccc3c1C2=O [CH5424802]; conditions: top dose 5.12 µM; top dose inferred
# Description: as §1
# [4] = compound: N#Cc1c(C2CCNCC2)cc(-c2c(O)cccc2OCC2CC2)nc1N [ACHP (KIN001-260)]; conditions: top dose 20 µM; top dose inferred
# Description: as §1
Cell Line,AUC [1],IC50 [1] [µM],AUC [2],IC50 [2] [µM],AUC [3],IC50 [3] [µM],AUC [4],IC50 [4] [µM]
"8-MG-BA (glioma, adherent)",0.598,2.27,0.845,6.56,0.966,> 5.12,0.972,> 20
"22RV1 (prostate, adherent)",0.431,0.773,0.967,> 10,0.979,> 5.12,0.954,> 20
"451Lu (melanoma, adherent)",0.669,3.62,0.864,8.14,0.988,> 5.12,0.989,> 20
"639-V (bladder, adherent)",0.737,5.23,0.92,> 10,0.991,> 5.12,0.991,> 20
"8305C (thyroid, adherent)",0.982,> 20,0.892,> 10,0.968,> 5.12,0.972,> 20
"8505C (thyroid, adherent)",0.495,1.21,0.887,> 10,0.973,> 5.12,0.95,> 20
"A101D (melanoma, adherent)",0.566,1.98,0.769,4.65,0.981,> 5.12,0.939,> 20
"A253 (head and neck, adherent)",0.76,6.9,0.98,> 10,0.988,> 5.12,0.988,> 20
"A388 (skin, adherent)",0.767,8.48,0.921,> 10,0.983,> 5.12,0.981,> 20
"A427 (non-small cell lung carcinoma, adherent)",0.76,7.09,0.985,> 10,0.978,> 5.12,0.98,> 20
"A498 (kidney, adherent)",0.855,> 20,0.976,> 10,0.944,> 5.12,0.977,> 20
"A673 (rhabdomyosarcoma, adherent)",0.486,1.15,0.981,> 10,0.99,> 5.12,0.985,> 20
"A704 (kidney, adherent)",,,0.929,> 10,0.982,> 5.12,0.974,> 20
"A2058 (melanoma, adherent)",0.847,12.4,0.895,9.9,0.99,> 5.12,0.99,> 20
"A2780 (ovary, semi-adherent)",0.46,0.966,0.927,> 10,0.957,> 5.12,0.884,> 20
"ABC-1 (lung adenocarcinoma, adherent)",0.521,1.45,0.935,> 10,0.976,> 5.12,0.966,> 20
"AGS (stomach, adherent)",0.507,1.3,0.846,6.21,0.99,> 5.12,0.986,> 20
"ALL-PO (lymphoblastic leukaemia, suspension)",0.122,< 0.0781,0.848,8.1,0.711,1.31,0.705,4.92
"ALL-SIL (T-cell leukaemia, suspension)",0.222,0.225,0.913,> 10,0.961,> 5.12,0.796,7.93
"AMO-1 (haematopoietic neoplasm, suspension)",0.302,0.381,0.841,5.55,0.983,> 5.12,0.809,8.69
"ASH-3 (thyroid, adherent)",0.92,> 20,0.89,> 10,0.986,> 5.12,0.988,> 20
"ATN-1 (T-cell lymphoblastic leukaemia, suspension)",0.311,0.384,0.936,> 10,0.837,3.1,0.882,18.8

Cell Line,AUC [1],IC50 [1] [µM],AUC [2],IC50 [2] [µM],AUC [3],IC50 [3] [µM],AUC [4],IC50 [4] [µM]
"AU565 (breast, adherent)",0.551,1.75,0.929,> 10,0.977,> 5.12,0.959,> 20
"AsPC-1 (pancreas, adherent)",0.671,5.29,0.865,> 10,0.95,> 5.12,0.951,> 20
"BB65-RCC (kidney, adherent)",0.52,1.43,0.896,> 10,0.983,> 5.12,0.955,> 20
"BE-13 (lymphoblastic leukaemia, suspension)",0.141,0.105,0.881,9.27,0.971,> 5.12,0.847,13.3
"BHT-101 (thyroid, adherent)",0.433,0.813,0.786,4.45,0.971,> 5.12,0.976,> 20
"BICR10 (head and neck, adherent)",0.797,11.2,0.905,> 10,0.982,> 5.12,0.985,> 20
"BL-41 (Burkitt lymphoma, suspension)",0.227,0.26,0.882,6.38,0.939,> 5.12,0.892,13.8
"BT-20 (breast, adherent)",0.745,7.6,0.966,> 10,0.981,> 5.12,0.981,> 20
"BT-474 (breast, adherent)",0.54,1.62,0.764,4.04,0.986,> 5.12,0.937,> 20
"BT-483 (breast, adherent)",0.825,> 20,0.975,> 10,0.961,> 5.12,0.977,> 20
"Becker (glioma, adherent)",0.629,2.96,0.919,> 10,0.978,> 5.12,0.959,> 20
"C2BBe1 (large intestine, adherent)",0.616,2.73,0.911,> 10,0.977,> 5.12,0.978,> 20
"C32 (melanoma, adherent)",0.88,> 20,0.963,> 10,0.986,> 5.12,0.987,> 20
"C-4-I (cervix, adherent)",0.969,> 20,0.937,> 10,0.982,> 5.12,0.986,> 20
"CADO-ES1 (Ewing sarcoma, suspension)",0.344,0.456,0.96,> 10,0.982,> 5.12,0.916,> 20
"CAL-12T (non-small cell lung carcinoma, adherent)",0.559,1.84,0.886,> 10,0.933,> 5.12,0.917,> 20
"CAL-27 (head and neck, adherent)",0.495,1.21,0.831,6.5,0.984,> 5.12,0.979,> 20
"CAL-33 (head and neck, adherent)",0.649,3.24,0.911,> 10,0.984,> 5.12,0.98,> 20
"CAL-62 (thyroid, adherent)",0.687,4.05,0.765,3.5,0.988,> 5.12,0.988,> 20
"CAL-78 (chondrosarcoma, adherent)",0.867,> 20,0.921,> 10,0.986,> 5.12,0.98,> 20
"CAPAN-1 (pancreas, adherent)",0.773,8.67,0.942,> 10,0.985,> 5.12,0.987,> 20
"CAS-1 (glioma, adherent)",0.658,4.05,0.899,> 10,0.946,> 5.12,0.973,> 20

Cell Line,AUC [1],IC50 [1] [µM],AUC [2],IC50 [2] [µM],AUC [3],IC50 [3] [µM],AUC [4],IC50 [4] [µM]
"CCK-81 (large intestine, adherent)",0.487,1.16,0.895,> 10,0.96,> 5.12,0.953,> 20
"CGTH-W-1 (thyroid, adherent)",0.675,3.84,0.89,> 10,0.986,> 5.12,0.982,> 20
"CHP-212 (neuroblastoma, adherent)",0.264,0.283,0.864,7.63,0.935,> 5.12,0.988,> 20
"CHSA0011 (chondrosarcoma, adherent)",0.836,> 20,0.871,> 10,0.97,> 5.12,0.964,> 20
"CHSA0108 (chondrosarcoma, adherent)",0.444,0.855,0.879,> 10,0.976,> 5.12,0.885,> 20
"COLO-829 (melanoma, adherent)",0.609,2.88,0.968,> 10,,,0.979,> 20
"GAK (melanoma, adherent)",0.665,3.5,0.929,> 10,,,0.954,> 20
"H290 (mesothelioma, adherent)",,,0.867,7.78,0.979,> 5.12,,
"HCC202 (breast, adherent)",0.524,1.49,0.968,> 10,,,0.966,> 20
"HSC-39 (stomach, suspension)",,,0.948,> 10,0.849,3.06,0.989,> 20
"IST-SL2 (small cell lung carcinoma, suspension)",0.986,> 20,0.984,> 10,0.977,> 5.12,,
"KELLY (neuroblastoma, adherent)",0.321,0.417,0.98,> 10,,,0.861,14.5
"LU-65 (large cell lung carcinoma, suspension)",0.607,2.6,0.978,> 10,,,0.96,> 20
"NB1 (neuroblastoma, semi-adherent)",0.76,7.7,0.872,> 10,,,0.913,> 20
"NB10 (neuroblastoma, adherent)",,,0.941,> 10,0.986,> 5.12,0.971,> 20
"NB14 (neuroblastoma, adherent)",,,0.925,> 10,0.971,> 5.12,0.895,> 20
"SK-N-AS (neuroblastoma, adherent)",0.358,0.476,0.904,> 10,,,0.984,> 20
"SK-N-SH (neuroblastoma, adherent)",0.382,0.595,0.884,> 10,,,0.959,> 20
"SR (lymphoid neoplasm, suspension)",0.062,< 0.0781,0.767,3.37,,,0.702,4.33
"SW620 (large intestine, adherent)",,,0.881,8.34,0.971,> 5.12,0.979,> 20
"SW626 (ovary, adherent)",0.87,> 20,0.889,> 10,0.98,> 5.12,,
